Assay results as given in publication PMC5865211, “The orphan GPR50 receptor promotes constitutive TGFβ receptor signaling and protects against cancer development” (Nature Communications, 2018).

Target: T1, TβRI-Renilla luciferase 8 (Rluc8) fusion protein (UniProt P36897 34-503)
T1 construct: TGFβ receptor type I; In the homomer BRET row the second copy of TβRI carried YFP (TβRI-YFP) instead of Rluc8; also called TβRI-Rluc8; source: HEK293T, transfected, in intact cells
T1 sequence (looked up): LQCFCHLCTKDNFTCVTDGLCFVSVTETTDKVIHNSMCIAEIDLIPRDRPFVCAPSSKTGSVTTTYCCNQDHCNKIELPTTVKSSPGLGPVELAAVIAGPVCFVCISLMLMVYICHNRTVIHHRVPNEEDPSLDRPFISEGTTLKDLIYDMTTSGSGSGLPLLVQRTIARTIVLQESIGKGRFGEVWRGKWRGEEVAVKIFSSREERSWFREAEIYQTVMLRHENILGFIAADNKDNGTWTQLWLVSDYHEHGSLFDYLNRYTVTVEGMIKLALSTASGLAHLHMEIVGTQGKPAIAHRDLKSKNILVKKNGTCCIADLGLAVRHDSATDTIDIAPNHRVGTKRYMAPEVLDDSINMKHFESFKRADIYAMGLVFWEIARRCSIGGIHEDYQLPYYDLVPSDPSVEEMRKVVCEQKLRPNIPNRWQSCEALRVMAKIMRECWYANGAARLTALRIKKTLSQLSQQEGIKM
Assay: FRET or BRET; BRET donor saturation in intact HEK293T cells; fixed amount of TβRI-Rluc8, increasing amounts of YFP fusion; no TGFβ
Conditions: partners not purified

B1: GPR50wt-YFP (receptor, human, UniProt Q13585 1-617, looked up)
chain: MGPTLAVPTPYGCIGCKLPQPEYPPALIIFMFCAMVITIVVDLIGNSMVILAVTKNKKLRNSGNIFVVSLSVADMLVAIYPYPLMLHAMSIGGWDLSQLQCQMVGFITGLSVVGSIFNIVAIAINRYCYICHSLQYERIFSVRNTCIYLVITWIMTVLAVLPNMYIGTIEYDPRTYTCIFNYLNNPVFTVTIVCIHFVLPLLIVGFCYVRIWTKVLAARDPAGQNPDNQLAEVRNFLTMFVIFLLFAVCWCPINVLTVLVAVSPKEMAGKIPNWLYLAAYFIAYFNSCLNAVIYGLLNENFRREYWTIFHAMRHPIIFFSGLISDIREMQEARTLARARAHARDQAREQDRAHACPAVEETPMNVRNVPLPGDAAAGHPDRASGHPKPHSRSSSAYRKSASTHHKSVFSHSKAASGHLKPVSGHSKPASGHPKSATVYPKPASVHFKADSVHFKGDSVHFKPDSVHFKPASSNPKPITGHHVSAGSHSKSAFSAATSHPKPTTGHIKPATSHAEPTTADYPKPATTSHPKPTAADNPELSASHCPEIPAIAHPVSDDSDLPESASSPAAGPTKPAASQLESDTIADLPDPTVVTTSTNDYHDVVVIDVEDDPDEMAV
notes: GPR50, human, wild type form with 502TTGH505; also called GPR50wt-yellow fluorescent protein fusion; GPR50-YFP; source: HEK293T, transfected, in intact cells
BRET50: 0.025 ± 0.006
